Test results taken from PubChem BioAssay AID760 (NMMLSC, 2007).
About 360 (0.19%) of roughly 190,000 compounds were called active. The inconclusive results got no clear call from the source; some entries with a clear call stand among them for comparison.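 How the source made its calls: active means GTP binding activity at least 20 points away from 100%, either lowered or raised; inconclusive means signal likely due to the compound's own green fluorescence; inactive means the rest.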

biological target: Ras-related protein Rab-2A (Canis lupus familiaris) (UniProt P61105); assay: Rab2 wt fluorescent GTP binding changes, either direction – biochemical, dog, bead-based flow cytometry, multiplex, primary screen (AID 760); conditions: GST-Rab2 wt beads, Bodipy-GTP binding, at 10 µM;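 further: 0% = beads with excess unlabeled GTP and 100% = no-compound control corrected for plate trend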

Row | SMILES | GTP binding activity
1 | CC1CCCCC1NC(=O)CO/N=C/c1ccc(OC(F)F)cc1 (stereo not drawn) | inactive: 97%
2 | CC1(C)Cc2c(sc3nc(-c4cc5ccccc5o4)n(N)c(=O)c23)CO1 | inconclusive: 91%
3 | OC1(C#CCCN2CCCCC2)c2ccccc2-c2ccccc21 | inconclusive: 96%
4 | Oc1ccc(C2=Nn3c(nnc3-c3ccco3)SC2)cc1O | active: 47%
5 | N#CC1(C#N)CC(C=O)=C(N)C1(C#N)CC(=O)C12CC3CC(CC(C3)C1)C2 (stereo not drawn) | inactive: 91%
6 | O=C(CC1Nc2ccccc2NC1=O)c1ccccc1 (stereo not drawn) | inconclusive: 116%
7 | CC1CC(=O)N(Cc2ccccc2)c2ccccc2N1C=O (stereo not drawn) | inconclusive: 109%
8 | CC(C)Cc1nn2c(=O)cc(O)nc2s1 | inconclusive: 102%
9 | Cc1ccc(C)c2sc(NC(=O)c3nc4ccccc4s3)nc12 | inactive: 99%
10 | COc1cccc(C2=CC(c3ccccc3)n3ncnc3N2)c1 (stereo not drawn) | inconclusive: 103%
11 | COc1ccc(NC(=O)CC2C(=O)N(c3cccc(OC)c3)C(=O)N2C(C)C)cc1 (stereo not drawn) | inactive: 96%
12 | C[C@@H]1NC(=O)[C@H](CCC(=O)O)NC(=O)c2cc([N+](=O)[O-])cc(F)c2NCCC[C@@H](C(N)=O)NC1=O | inactive: 102%
13 | CC1CCCCC1NC(=O)/C=C/c1nc2ccccc2s1 (stereo not drawn) | inconclusive: 89%
14 | COc1ccc(/C=C/C(=O)N2CCN(C)CC2)cc1S(=O)(=O)N1CCCCC1 | inactive: 100%
15 | COc1ccc(CNC(=O)C2CCC(CNc3nc(=S)[nH]c4ccccc34)CC2)cc1 (stereo not drawn) | inactive: 92%
16 | Cc1ccc(S(=O)(=O)c2c(C)cc(C)nc2Cl)c(C)c1 | inconclusive: 95%
17 | O=C(OCc1cn(-c2ccc(Cl)c(Cl)c2)nn1)c1ccccc1 | inconclusive: 86%
18 | Clc1ccccc1CSc1nnc(/C=C/c2ccccc2)o1 | inconclusive: 91%
19 | CCOc1nc(NC(=O)NS(=O)(=O)c2ccccc2F)nc(-c2ccccc2)n1 | inconclusive: 92%
20 | Nc1cccc(S(=O)(=O)c2cccc(N)c2)c1 | inconclusive: 37%
21 | CC(C)N(C(=O)CS(=O)(=O)c1ccc(Cl)c(Cl)c1)C(C)C | inactive: 95%
22 | S=c1[nH]nc(-c2ccco2)n1-c1ccc(Cl)cc1 | inactive: 82%
23 | CCc1sc(N2C(=O)C3C4CCC(C4=C(C)C)C3C2=O)nc1-c1ccccc1 (stereo not drawn) | inconclusive: 91%
24 | COC(=O)c1sc2ncccc2c1OCc1ccccc1Cl | inconclusive: 89%

Row | SMILES | GTP binding activity
25 | Cc1onc(-c2c(Cl)cccc2Cl)c1C(=O)NCC1CCCO1 (stereo not drawn) | inconclusive: 107%
26 | Nc1cc(C(F)(F)F)ccc1-n1cccc1 | inactive: 98%
27 | CC1(C)Cc2cccc(OCC(O)CNCc3ccccn3)c2O1 (stereo not drawn) | inconclusive: 106%
28 | O=C(NCc1ccccc1Cl)C1CCC(CNc2nc(=S)[nH]c3ccccc23)CC1 (stereo not drawn) | inactive: 88%
29 | CCCNC(=O)Cn1nc(C(F)(F)F)c2c1CCCC2 | inconclusive: 99%
30 | COc1ccc(CCNC(=O)Cn2c(=O)n(-c3ccc(C)c(F)c3)c(=O)c3sccc32)cc1OC | inactive: 102%
31 | CCC(C)c1ccc(NC(=O)CSc2nncn2N)cc1 (stereo not drawn) | inconclusive: 106%
32 | COc1ccccc1N(CC(=O)Nc1cc(C)on1)S(=O)(=O)c1ccc(Cl)cc1 | inconclusive: 89%
33 | CCCC(=O)N1CCN(c2ccc(NC(=S)NC(=O)c3cccc(C)c3)cc2)CC1 | inconclusive: 99%
34 | O=C(NCCN1CCN(C(=O)c2cc3ccccc3oc2=O)CC1)c1cc2ccccc2oc1=O | inconclusive: 108%
35 | COc1cccc(CN(C)CC(=O)Nc2sc3c(c2C#N)CCC3)c1OC | inconclusive: 90%
36 | COC(=O)c1cn(NC(=O)c2ccccc2[N+](=O)[O-])c(=O)c2ccccc12 | inactive: 96%
37 | CCC(C)C(=O)Nc1ccc(OC)cc1OC (stereo not drawn) | inconclusive: 163%
38 | CC1=NC(=O)C(N=Nc2ccccc2C(=O)O)N1c1ccccc1 (stereo not drawn) | inactive: 80%
39 | O=C(CN1C(=O)C(=O)N(C2CCCC2)C1=O)Nc1ccc(N2CCOCC2)cc1 | inactive: 96%
40 | CC(C)N=C(NS(=O)(=O)c1ccccc1)C(Cl)(Cl)Cl | inactive: 103%
41 | O=C(NCCOc1ccc(Cl)cc1)C1CC(=O)N(c2ccc(F)cc2)C1 (stereo not drawn) | inconclusive: 105%
42 | Cc1cc(NCCc2ccccc2F)n2ncnc2n1 | inconclusive: 96%
43 | Cc1ccc(CN2CC(C(=O)Nc3ccc4c(C)cc(=O)oc4c3)CC2=O)cc1 (stereo not drawn) | inconclusive: 91%
44 | CCCC(=O)Nc1ccc(N2CCN(S(C)(=O)=O)CC2)cc1 | inactive: 99%
45 | Cc1ccc2nc(SCc3ccc([N+](=O)[O-])cc3)[nH]c2c1 | inconclusive: 96%
46 | O=C(CCNS(=O)(=O)c1ccc(Cl)cc1)NCc1ccccn1 | inconclusive: 106%
47 | CCC1CCCCN1C(=S)Nc1cccc(S(=O)(=O)N(C)C)c1 (stereo not drawn) | inactive: 97%
48 | COc1ccc(N2CCN(CC(=O)Nc3cccc(S(=O)(=O)N4CCOCC4)c3)CC2)cc1 | inconclusive: 96%

Row | SMILES | GTP binding activity
49 | COc1ccc(S(=O)(=O)CC(O)CN2CCCC2=O)cc1 (stereo not drawn) | inconclusive: 107%
50 | O=C1COc2ccc(C(=O)COC(=O)CNC(=O)c3ccco3)cc2N1 | inactive: 96%
51 | CN(CC(=O)Nc1ccccc1Cl)CC(=O)Nc1ccccc1[N+](=O)[O-] | inactive: 95%
52 | COc1ccc2cc3cc(C(=O)NCCc4ccc(OC)c(OC)c4)oc3nc2c1 | inconclusive: 92%
53 | Cc1nn(C)c2nc(-c3cccs3)cc(C(F)(F)F)c12 | inconclusive: 93%
54 | COC(=O)c1ccc(/C=N/Nc2nc(-c3ccc(Cl)cc3Cl)cs2)cc1 | active: 123% [activator]
55 | COc1ccc([N+](=O)[O-])cc1N(CC(O)CN1CCCCC1)S(=O)(=O)c1ccc(C)cc1 (stereo not drawn) | inactive: 100%
56 | CCn1c(SCC(=O)NC2CCCc3ccccc32)nnc1-c1cccs1 (stereo not drawn) | inconclusive: 103%
57 | Cn1c(-c2ccc(F)cc2)cnc1NCc1ccc(F)cc1 | inconclusive: 108%
58 | Fc1ccc(COc2ccc(/C=N/n3cnnc3)cc2)cc1 | inconclusive: 104%
59 | O=C(O)CCn1cc(/C=N/O)c(-c2cccc([N+](=O)[O-])c2)n1 | inactive: 99%
60 | c1ccc2c3c([nH]c2c1)C(C1CCCCC1)N(Cc1ncc[nH]1)CC3 (stereo not drawn) | inactive: 95%
61 | N=c1c2c(-c3ccccc3)c(-c3ccccc3)n(Cc3ccco3)c2ncn1Cc1ccco1 | inconclusive: 107%
62 | O=C(c1ccccc1)c1nnc(-c2ccncc2)o1 | inconclusive: 108%
63 | O=C(/C=C/c1ccc(N2CCOCC2)cc1)c1ccccc1 | inactive: 97%
64 | NC(=O)Cn1c(=O)n(CCC(=O)NCCSCc2ccccc2)c(=O)c2ccccc21 | inactive: 101%
65 | O=C(c1ccc2ncsc2c1)N1CCN(c2ccc(O)cc2)CC1 | inactive: 106%
66 | O=C(CNC(=O)c1cccs1)NCC(=O)OCc1ccc(Cl)cc1Cl | inconclusive: 103%
67 | Clc1ccc(SCCOCCN2CCCCC2)cc1 | inconclusive: 104%
68 | O=C(O)C1CC(=O)N(c2ccc(OCc3ccc(Cl)cc3Cl)cc2)C1 (stereo not drawn) | inconclusive: 86%
69 | COCc1cc(Sc2ccc(Cl)cc2)nc(-c2ccccc2)n1 | inconclusive: 93%
70 | O=C(CSCc1c(F)cccc1Cl)NCCSCc1ccco1 | inconclusive: 93%
71 | COc1cc(OC)c(-c2c3cc(O)c(=O)cc-3oc3cc(O)c(O)cc23)cc1OC | inconclusive: 220%
72 | Cc1cc(Oc2ccc(=O)n(C)n2)nc(=S)[nH]1 | inconclusive: 92%

Row | SMILES | GTP binding activity
73 | COc1ccc(O)c(-c2cc(-c3cccc(Br)c3)n[nH]2)c1 | inconclusive: 106%
74 | CCCN1C(=O)/C(=C/C=C2\N(CC)c3ccccc3C2(C)C)SC1=S | inconclusive: 144%
75 | COC(=O)c1ccccc1NC1CC(=O)N(c2c(C)cccc2C)C1=O (stereo not drawn) | inactive: 95%
76 | COc1ccc(Cc2nnc(N/N=C/c3ccc(O)cc3O)[nH]c2=O)cc1OC | inconclusive: 87%
77 | O=C(N/N=C/c1ccc[nH]1)c1ccccc1OCc1ccccc1Cl | inconclusive: 88%
78 | CCOC(=O)c1cnc(SCC(=O)OC)nc1N | inconclusive: 102%
79 | COc1cccc(-c2nc(CS(=O)CC(=O)NCCCOC(C)C)c(C)o2)c1 (stereo not drawn) | inconclusive: 102%
80 | Cc1ccc(Nc2nnc(SC/C(O)=C(\C#N)c3nc4ccccc4[nH]3)s2)c(C)c1 | inconclusive: 93%
81 | COc1cc(C)c(CNc2cccc(C)c2)cc1C | inconclusive: 102%
82 | O=C(Nc1ncc(Cc2cccc(C(F)(F)F)c2)s1)c1ccc(-c2cccc([N+](=O)[O-])c2)o1 | inactive: 94%
83 | COc1ccc(OCCN2C(=O)c3ccccc3C2=O)cc1 | inactive: 106%
84 | O=C(Nc1nc2ccccc2[nH]1)c1cc2ccccc2o1 | inconclusive: 92%
85 | Cc1c(C(=O)N2CCc3ccccc3C2)oc2ccc(S(=O)(=O)N3CCCCCC3)cc12 | inactive: 112%
86 | O=C1NC(=S)N/C1=C\c1ccc(N2CCOCC2)cc1 | inconclusive: 87%
87 | COc1ccc(NC(=S)Nn2cnnc2)cc1OC | inactive: 93%
88 | NC(=O)COc1ccc(C2c3c(oc4ccccc4c3=O)C(=O)N2CC2CCCO2)cc1 (stereo not drawn) | inconclusive: 89%
89 | Cc1nn2c(NCCCN3CCOCC3)c3c(nc2c1-c1ccccc1)CCC3 | inconclusive: 93%
90 | Cc1ccc(O)c(NC2=C(Cl)C(=O)N(Cc3ccccc3)C2=O)c1 | inconclusive: 89%
91 | Cc1cccc(N(CC(=O)N2CCN(c3ccccc3F)CC2)S(C)(=O)=O)c1 | inconclusive: 93%
92 | CC(=O)c1cc(-c2ccc(F)cc2)n(CCC(=O)Nc2cccc(C)n2)c1C | inactive: 101%
93 | Cc1ccccc1-c1ncc(CN2CCN(C3CCCCC3)C(CCO)C2)cn1 (stereo not drawn) | inactive: 99%
